Experimental data published in PubChem BioAssay (NCATS).
This is one part of the list. The main result of the screen is listed elsewhere. These columns were measured beside it and carry no call. For some assays here: Compounds called inactive in the main read-out are mostly missing here. The note in brackets gives the kind of curve behind each potency; many fits are weak.

Legend:
[1] = qHTS drug screen for cell cycle checkpoint inhibitors in PARPi-resistant BRCA-mutant ovarian cancer cell lines. (AID 1963452); conditions: PEO1/OlaR viability, CellTiter-Glo luminescence, 96 h
Outline: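 PEO1, PEO4 and PEO1/OlaR ovarian cancer cells, 600 per well, exposed 96 h at 37C to a dilution series. Viability read by CellTiter-Glo luminescence, normalized to DMSO and empty wells; activity summarized as Z-AUC.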

[2] = qHTS for identification of novel therapeutic agents for treatment of microphthalmiaassociated transcription factor (MiT) renal cell carcinoma (RCC) (AID 1963991); conditions: CellTiter-Glo, 48 h; for z-score: stronger effect = lower value
Outline: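 Three TFE3-fusion RCC cell lines (UOK109, UOK124, UOK145), 500 cells/well, were exposed to the 1912-compound MIPE 4.0 library for 48 hours at 37 C. Viability was read by CellTiter-Glo luminescence, normalised to DMSO (100%) and empty wells (0%), with 11-concentration curve fits.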

[3] = measured here: PEO1 parental viability
[4] = TFE3-RCC UOK109 viability, measured here: UOK109 Z-AUC
[5] = TFE3-RCC viability, measured here: UOK124 Z-AUC
[6] = TFE3-RCC viability, measured here: UOK124 cell viability
[7] = TFE3-RCC viability, measured here: UOK145 Z-AUC
[8] = TFE3-RCC viability, measured here: UOK145 cell viability
Tags give direction and shape of the fitted curve.

CCc1c(O)cc(O)c(C(=O)c2ccc(OCCN3CCOCC3)c(OC)c2)c1CC(=O)N(CCOC)CCOC
AC50 [1, 3]: 1.1 µM [falling, full curve]
AC50 ([1]; measured here: PEO4 viability): 3.09 µM [falling, full curve]
z-score [2, 4]: -0.124
z-score [2, 5]: 0.554
AC50 [2, 6]: 5.9 µM [falling, full curve]
z-score [2, 7]: -0.29
AC50 [2, 8]: 20.9 µM [falling, partial curve]

Nc1ccccc1NC(=O)c1ccc(CNC(=O)OCc2cccnc2)cc1
AC50 [1, 3]: 7.76 µM [falling, partial curve]
AC50 ([1]; measured here: PEO4 viability): 7.76 µM [falling, partial curve]
z-score [2, 4]: 0.0492
z-score [2, 5]: -0.0642
AC50 [2, 6]: 16.6 µM [falling, partial curve]
z-score [2, 7]: -0.0344
AC50 [2, 8]: 10.5 µM [falling, partial curve]

FC(F)c1nc2ccccc2n1-c1nc(N2CCOCC2)nc(N2CCOCC2)n1
AC50 [1, 3]: 0.616 µM [falling, partial curve]
AC50 ([1]; measured here: PEO4 viability): 1.55 µM [falling, full curve]
z-score [2, 4]: -1.64
z-score [2, 5]: -0.721
AC50 [2, 6]: 0.418 µM [falling, full curve]
z-score [2, 7]: -0.768
AC50 [2, 8]: 1.05 µM [falling, full curve]

COc1cccc2c(NCc3ccccc3)nc(-n3c(N)nc4ccccc43)nc12
AC50 [1, 3]: 3.89 µM [falling, single point]
AC50 ([1]; measured here: PEO4 viability): 2.75 µM [falling, full curve]
z-score [2, 4]: -0.101
z-score [2, 5]: -1.5
AC50 [2, 6]: 5.26 µM [falling, full curve]
z-score [2, 7]: -0.268
AC50 [2, 8]: 10.5 µM [falling, full curve]

Clc1cc(Cl)cc(CNc2ncncc2-c2ccc3c(c2)OCO3)c1
AC50 [1, 3]: 15.5 µM [falling, partial curve]
AC50 ([1]; measured here: PEO4 viability): 17.4 µM [falling, partial curve]
z-score [2, 4]: 1.21
z-score [2, 5]: 0.415
AC50 [2, 6]: 23.5 µM [falling, single point]
z-score [2, 7]: 0.237
AC50 [2, 8]: 33.2 µM [falling, single point]

Cc1cccc(-c2[nH]c(C(C)(C)C)nc2-c2ccc3c(c2)OCO3)n1
AC50 [1, 3]: 11 µM [falling, partial curve, poor fit]
AC50 ([1]; measured here: PEO4 viability): 13.8 µM [falling, partial curve, poor fit]
z-score [2, 4]: 0.663
z-score [2, 5]: 1.48
AC50 [2, 6]: 9.35 µM [falling, full curve]
z-score [2, 7]: 0.202
AC50 [2, 8]: 14.8 µM [falling, partial curve]

O=c1[nH]nc(Sc2ncc([N+](=O)[O-])s2)n1-c1ccc2c(c1)OCCO2
AC50 [1, 3]: 13.8 µM [falling, partial curve]
AC50 ([1]; measured here: PEO4 viability): 3.89 µM [falling, full curve]
z-score [2, 4]: -0.443
z-score [2, 5]: -0.609
AC50 [2, 6]: 9.35 µM [falling, full curve]
z-score [2, 7]: -0.655
AC50 [2, 8]: 10.5 µM [falling, full curve]

CC(C)(C)c1cnc(CSc2cnc(NC(=O)C3CCNCC3)s2)o1
AC50 [1, 3]: 0.174 µM [falling, full curve]
AC50 ([1]; measured here: PEO4 viability): 0.347 µM [falling, full curve]
z-score [2, 4]: -0.83
z-score [2, 5]: -0.448
AC50 [2, 6]: 1.18 µM [falling, full curve]
z-score [2, 7]: -1.36
AC50 [2, 8]: 0.662 µM [falling, full curve]

COc1ccc(OC)c(-c2nnc3ccc(-c4ccc(OC)c(O[C@@H]5CCOC5)c4)nn23)c1
AC50 [1, 3]: 3.47 µM [falling, full curve]
AC50 ([1]; measured here: PEO4 viability): 0.347 µM [falling, full curve, poor fit]
z-score [2, 4]: -0.44
z-score [2, 5]: -0.874
AC50 [2, 6]: 8.33 µM [falling, full curve]
z-score [2, 7]: -0.619
AC50 [2, 8]: 23.5 µM [falling, partial curve]

CNC(=O)c1ccccc1Nc1nc(Nc2ccc(N3CCOCC3)cc2OC)ncc1Cl
AC50 [1, 3]: 9.77 µM [falling, partial curve]
AC50 ([1]; measured here: PEO4 viability): 3.09 µM [falling, partial curve]
z-score [2, 4]: -0.795
z-score [2, 5]: -0.768
AC50 [2, 6]: 4.69 µM [falling, partial curve]
z-score [2, 7]: -1.07
AC50 [2, 8]: 13.2 µM [falling, partial curve]

Cc1cc(C(=O)N2CCN(c3cccc(Cl)c3)CC2)n(-c2ccccc2)n1
AC50 [1, 3]: 0.977 µM [falling, full curve]
AC50 ([1]; measured here: PEO4 viability): 1.1 µM [falling, full curve]
z-score [2, 4]: -0.185
z-score [2, 5]: -0.18
AC50 [2, 6]: 5.26 µM [falling, partial curve]
z-score [2, 7]: 0.199
AC50 [2, 8]: 0.59 µM [falling, full curve]
